Data reported in the supplement of paper PMC4967469.

Each cell line was assayed with Cc1ccc(-c2c(C(=O)CF)n(CCCO)c3ncnc(N)c23)cc1 [FMK] (assay: Viability of human cancer cell lines after 72 h of drug (GDSC screen)). Conditions: top dose inferred.
Method: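 Human cancer cell lines in 384-well plates, medium with 10% serum, drug for 72 h over a 256-fold dose range (nine 2-fold or five 4-fold steps up to the top dose). Adherent lines were fixed and stained with the nucleic acid dye Syto60, suspension lines read with resazurin; signal relative to control wells, capped at 0 and 100%. One two-parameter sigmoid per drug and line, fitted in a mixed model over all curves with the slope shared within a line.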

First: NCI-H2087 (lung adenocarcinoma, semi-adherent, top dose 20 µM)
Second: NCI-H2110 (non-small cell lung carcinoma, adherent, top dose 20 µM)
The AUC of the first is lower: 0.651 for the first, 0.979 for the second.

Compared with “NCI-H2122 (lung adenocarcinoma, adherent, top dose 20 µM)”, “NCI-H2141 (small cell lung carcinoma, suspension, top dose 20 µM)” is higher in AUC: 0.981 for the first, 0.988 for the second.

First: NCI-H2170 (lung squamous cell carcinoma, adherent, top dose 20 µM)
Second: NCI-H2171 (small cell lung carcinoma, suspension, top dose 20 µM)
The AUC of the first is higher: 0.987 for the first, 0.973 for the second.

Compared with “NCI-H2172 (non-small cell lung carcinoma, adherent, top dose 20 µM)”, “NCI-H2196 (small cell lung carcinoma, adherent, top dose 20 µM)” is higher in AUC: 0.978 for the first, 0.987 for the second.

First: NCI-H2228 (lung adenocarcinoma, adherent, top dose 20 µM)
Second: NCI-H2291 (lung adenocarcinoma, adherent, top dose 20 µM)
The AUC of the first is lower: 0.96 for the first, 0.977 for the second.

Compared with “NCI-H2342 (lung adenocarcinoma, adherent, top dose 20 µM)”, “NCI-H2347 (lung adenocarcinoma, adherent, top dose 20 µM)” is lower in AUC: 0.978 for the first, 0.966 for the second.

Going from “NCI-H2405 (lung adenocarcinoma, adherent, top dose 20 µM)” to “NCI-H2444 (non-small cell lung carcinoma, adherent, top dose 20 µM)”, the AUC rises from 0.974 to 0.984.

Going from “NCI-H2452 (mesothelioma, adherent, top dose 20 µM)” to “NCI-H3122 (lung adenocarcinoma, adherent, top dose 20 µM)”, the AUC rises from 0.978 to 0.987.

First: NCI-SNU-1 (stomach, suspension, top dose 20 µM)
Second: NCI-SNU-5 (stomach, suspension, top dose 20 µM)
The AUC of the first is lower: 0.925 for the first, 0.989 for the second.

Compared with “NCI-SNU-16 (stomach, suspension, top dose 20 µM)”, “NK-92MI (lymphoid neoplasm, suspension, top dose 20 µM)” is lower in AUC: 0.991 for the first, 0.986 for the second.

First: NKM-1 (acute myeloid leukaemia, suspension, top dose 20 µM)
Second: NMC-G1 (glioma, adherent, top dose 20 µM)
The AUC of the first is higher: 0.976 for the first, 0.945 for the second.

Going from “NOMO-1 (acute myeloid leukaemia, suspension, top dose 20 µM)” to “NOS-1 (osteosarcoma, adherent, top dose 20 µM)”, the AUC rises from 0.905 to 0.919.

Going from “NTERA-2 cl.D1 (testis, adherent, top dose 20 µM)” to “NU-DUL-1 (B-cell lymphoma, suspension, top dose 20 µM)”, the AUC falls from 0.977 to 0.974.

Going from “NUGC-3 (stomach, adherent, top dose 20 µM)” to “NY (osteosarcoma, adherent, top dose 20 µM)”, the AUC rises from 0.979 to 0.988.

First: OAW-28 (ovary, adherent, top dose 20 µM)
Second: OAW-42 (ovary, adherent, top dose 20 µM)
The AUC of the first is higher: 0.98 for the first, 0.967 for the second.

First: OC-314 (ovary, adherent, top dose 20 µM)
Second: OCI-AML2 (acute myeloid leukaemia, suspension, top dose 20 µM)
The AUC of the first is lower: 0.955 for the first, 0.967 for the second.

Compared with “OCI-AML3 (acute myeloid leukaemia, suspension, top dose 20 µM)”, “OCI-AML5 (acute myeloid leukaemia, suspension, top dose 20 µM)” is higher in AUC: 0.875 for the first, 0.987 for the second.

Compared with “OCI-LY-19 (B-cell lymphoma, suspension, top dose 20 µM)”, “OCI-M1 (acute myeloid leukaemia, suspension, top dose 20 µM)” is higher in AUC: 0.958 for the first, 0.966 for the second.

Cell Line “OCUB-M (breast, adherent, top dose 20 µM)” has an AUC of 0.972.

Going from “NCI-H2087 (lung adenocarcinoma, semi-adherent, top dose 20 µM)” to “NCI-H2110 (non-small cell lung carcinoma, adherent, top dose 20 µM)”, the IC50 rises from 3.39 µM to over 20 µM.

“NCI-H2122 (lung adenocarcinoma, adherent, top dose 20 µM)” and “NCI-H2141 (small cell lung carcinoma, suspension, top dose 20 µM)” cannot be ordered by IC50: over 20 µM for the first, over 20 µM for the second.

“NCI-H2170 (lung squamous cell carcinoma, adherent, top dose 20 µM)” and “NCI-H2171 (small cell lung carcinoma, suspension, top dose 20 µM)” cannot be ordered by IC50: over 20 µM for the first, over 20 µM for the second.

“NCI-H2172 (non-small cell lung carcinoma, adherent, top dose 20 µM)” and “NCI-H2196 (small cell lung carcinoma, adherent, top dose 20 µM)” cannot be ordered by IC50: over 20 µM for the first, over 20 µM for the second.

“NCI-H2228 (lung adenocarcinoma, adherent, top dose 20 µM)” and “NCI-H2291 (lung adenocarcinoma, adherent, top dose 20 µM)” cannot be ordered by IC50: over 20 µM for the first, over 20 µM for the second.

“NCI-H2342 (lung adenocarcinoma, adherent, top dose 20 µM)” and “NCI-H2347 (lung adenocarcinoma, adherent, top dose 20 µM)” cannot be ordered by IC50: over 20 µM for the first, over 20 µM for the second.

“NCI-H2405 (lung adenocarcinoma, adherent, top dose 20 µM)” and “NCI-H2444 (non-small cell lung carcinoma, adherent, top dose 20 µM)” cannot be ordered by IC50: over 20 µM for the first, over 20 µM for the second.

“NCI-H2452 (mesothelioma, adherent, top dose 20 µM)” and “NCI-H3122 (lung adenocarcinoma, adherent, top dose 20 µM)” cannot be ordered by IC50: over 20 µM for the first, over 20 µM for the second.

“NCI-SNU-1 (stomach, suspension, top dose 20 µM)” and “NCI-SNU-5 (stomach, suspension, top dose 20 µM)” cannot be ordered by IC50: over 20 µM for the first, over 20 µM for the second.

“NCI-SNU-16 (stomach, suspension, top dose 20 µM)” and “NK-92MI (lymphoid neoplasm, suspension, top dose 20 µM)” cannot be ordered by IC50: over 20 µM for the first, over 20 µM for the second.

“NKM-1 (acute myeloid leukaemia, suspension, top dose 20 µM)” and “NMC-G1 (glioma, adherent, top dose 20 µM)” cannot be ordered by IC50: over 20 µM for the first, over 20 µM for the second.

“NOMO-1 (acute myeloid leukaemia, suspension, top dose 20 µM)” and “NOS-1 (osteosarcoma, adherent, top dose 20 µM)” cannot be ordered by IC50: over 20 µM for the first, over 20 µM for the second.

“NTERA-2 cl.D1 (testis, adherent, top dose 20 µM)” and “NU-DUL-1 (B-cell lymphoma, suspension, top dose 20 µM)” cannot be ordered by IC50: over 20 µM for the first, over 20 µM for the second.

“NUGC-3 (stomach, adherent, top dose 20 µM)” and “NY (osteosarcoma, adherent, top dose 20 µM)” cannot be ordered by IC50: over 20 µM for the first, over 20 µM for the second.

“OAW-28 (ovary, adherent, top dose 20 µM)” and “OAW-42 (ovary, adherent, top dose 20 µM)” cannot be ordered by IC50: over 20 µM for the first, over 20 µM for the second.

“OC-314 (ovary, adherent, top dose 20 µM)” and “OCI-AML2 (acute myeloid leukaemia, suspension, top dose 20 µM)” cannot be ordered by IC50: over 20 µM for the first, over 20 µM for the second.

Going from “OCI-AML3 (acute myeloid leukaemia, suspension, top dose 20 µM)” to “OCI-AML5 (acute myeloid leukaemia, suspension, top dose 20 µM)”, the IC50 rises from 14.9 µM to over 20 µM.

“OCI-LY-19 (B-cell lymphoma, suspension, top dose 20 µM)” and “OCI-M1 (acute myeloid leukaemia, suspension, top dose 20 µM)” cannot be ordered by IC50: over 20 µM for the first, over 20 µM for the second.

For “OCUB-M (breast, adherent, top dose 20 µM)”, the IC50 was over 20 µM.

The IC50 comes from the fitted curve, where viability falls to half of the control; fits outside the tested doses are given as limits. AUC sums up the same curve from the lowest dose to the 256-fold higher top dose; it is 1 without any effect and falls as sensitivity rises. Any top dose called inferred was derived from the fitted curves, not read from the paper.
